Measured values published in the supplement of paper PMC3334620.
Over roughly 33,000 sequences, “E-score (-0.5 to 0.5)” has its median near -0.011; the highest 2% begin near 0.28. This is one part of the list.

What follows are sequences tested against T1, Gcr1 (UniProt P07261) (assay: PBM E-score (8-mer binding enrichment) (E-score (-0.5 to 0.5)); higher = stronger / more preferred TF binding; most listed sequences are background and not binding sites). Details: protein concentration: 100 nM; construct: GST-full length.
T1 sequence: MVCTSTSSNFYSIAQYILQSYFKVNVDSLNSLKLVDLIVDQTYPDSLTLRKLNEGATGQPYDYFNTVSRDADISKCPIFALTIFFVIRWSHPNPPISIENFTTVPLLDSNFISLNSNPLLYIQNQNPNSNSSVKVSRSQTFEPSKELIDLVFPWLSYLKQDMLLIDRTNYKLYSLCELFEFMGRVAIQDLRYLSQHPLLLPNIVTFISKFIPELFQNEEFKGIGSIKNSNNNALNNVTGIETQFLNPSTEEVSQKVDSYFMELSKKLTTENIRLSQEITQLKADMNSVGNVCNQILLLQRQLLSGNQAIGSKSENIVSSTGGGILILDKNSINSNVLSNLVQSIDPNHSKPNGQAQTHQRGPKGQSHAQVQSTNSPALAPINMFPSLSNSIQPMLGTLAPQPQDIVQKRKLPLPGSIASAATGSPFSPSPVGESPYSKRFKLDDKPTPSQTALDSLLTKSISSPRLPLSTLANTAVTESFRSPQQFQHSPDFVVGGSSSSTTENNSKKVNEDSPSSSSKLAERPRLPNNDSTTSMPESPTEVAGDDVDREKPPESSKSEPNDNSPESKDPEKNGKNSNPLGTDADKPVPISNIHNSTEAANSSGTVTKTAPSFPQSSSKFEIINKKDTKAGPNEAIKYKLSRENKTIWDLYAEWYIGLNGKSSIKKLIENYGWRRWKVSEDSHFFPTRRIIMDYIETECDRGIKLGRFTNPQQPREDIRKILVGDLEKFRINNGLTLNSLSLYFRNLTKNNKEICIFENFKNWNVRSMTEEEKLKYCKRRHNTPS
Experimental: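 Universal 'all 10-mer' protein binding microarrays (Agilent AMADID 015681) probed with GST-tagged S. cerevisiae TFs (full-length or DBD) made by in vitro transcription/translation (PURExpress), about 100-200 nM. Bound TF was detected with fluorescent anti-GST. Each ungapped 8-mer (which stands for itself and its reverse complement) is scored by the PBM enrichment score (E-score), a modified Wilcoxon-Mann-Whitney statistic from -0.5 to +0.5, computed with the Universal PBM Analysis Suite. Scale: above 0.35 generally sequence-specific binding.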

Sequence	PBM E-score
CAAGAACA	0.0624
CGACTCGA	-0.0795
AGGCTTAA	-0.249
AAATGAAA	0.065
CGTCGGAA	-0.0149
ACTCGCTC	-0.0405
ATAGGCAA	-0.108
ATGTTATA	0.0737
AGGAACCT	0.38
CTAGATGC	0.224
AGGATTCC	0.373
AGCTCTTA	-0.0244
GGCCGCCA	0.277
CCATCTCC	-0.0122
AGCCCATA	-0.0753
GACTGTGA	-0.208
GCCGGACA	-0.189
ACGTCGGG	-0.197
GCGCTCGA	-0.121
TAATTCTA	0.194
CTCCTGGA	-0.0486
ATCCAGTG	0.255
CCGCGTTA	-0.239
CTGAGACA	-0.142
TTAAGCAA	0.0634

Sequence	PBM E-score
AGTTTAAG	0.208
CTCAGGAA	-0.0301
GATTAGGA	0.169
GGTGACAA	0.0154
TTCCTAAA	0.36
GCATCACC	-0.021
GCCCTGCC	-0.211
CCCGGCAA	0.0205
AGGTGAGG	-0.234
CCGGCCGG	-0.0302
CTGAACGC	0.0642
CAATACGC	-0.0796
AGAAGTCC	-0.0409
ACTACTAG	0.195
AGGTATTA	-0.00935
TCGGCGAA	-0.0496
GCTTGCCA	-0.156
AGCGCGCT	0.0779
CTGAAGTC	0.106
ACTCTAAA	0.0638
CTACCGCA	-0.134
AAGAGGTG	0.051
ATTAAGTC	0.0201
CATAATCG	0.0132
AATGAAGT	-0.188

Sequence	PBM E-score
TCAAATGA	0.0254
ATATCGGG	0.0205
ACGGCGAG	-0.125
GGACTCTA	0.0953
ACGTGTAG	0.0676
ACCACGTG	0.0203
GCATCCCC	0.351
GCATACAA	0.0234
AACGGGAA	0.132
GCTTGATA	0.0882
ACCAGCGC	0.106
AAACATGG	-0.213
ATGCACAA	-0.0233
AGGGCAGC	0.0608
ATATGATG	0.024
GTTGTAAA	-0.0263
TCCTAAGA	0.0241
AGTCACCC	-0.206
CGTCGGTA	-0.15
GAATAAAA	0.00901
CAACCGGG	0.173
ATGAATAC	-0.0749
TCGCCCAA	0.121
CACATGGA	-0.21
TGATTCAA	0.0833

Sequence	PBM E-score
TGTGATAA	0.0317
AAGTGCAA	-0.149
ATTATTAA	0.204
CACGCCGG	-0.15
TGAAAAAA	0.272
CGTTTGCC	-0.264
AGATAATG	-0.00607
ATGAGGAC	0.0341
GCCATCGC	-0.139
TATACTGA	0.0283
ACAAAGTG	-0.155
CTCATAGA	-0.149
ACGCGCGG	0.00401
ACAATCGA	-0.0545
TAGCTCAA	0.104
TACCGTCA	-0.0779
AAAGTTGC	0.0082
CCTGGCGA	-0.047
ACCGTTTG	-0.054
AGGGGTCC	0.0751
AGGGCCCC	0.118
CGCCCAGA	0.102
TGAGCGCA	-0.0999
TATTTCAA	0.0319
CCTTAGGA	0.0836

Sequence	PBM E-score
CAACAGGC	0.0524
AATCCAGT	0.141
CGGAGGAA	-0.0935
TGGCAACA	0.123
ATTGTATA	0.012
AAGGGGGA	0.00731
AGGTCTTG	-0.102
TACGCGAA	0.194
CATGATGA	-0.0891
AGCATGTG	-0.11
TTGCACAA	-0.147
CGATCATC	-0.0473
AAGGCGGT	0.00689
AGGCTAGG	-0.291
AATAACTC	-0.011
AATAGTTC	0.0205
ACCGGTGC	-0.0668
CGCGGAAG	-0.136
GCATTGCC	-0.149
GGAACGTA	-0.0769
GGATCCAA	0.299
AAGTATCG	0.0344
CCCAGCCC	-0.0246
CCGCTAAA	0.0268
CCCTTACC	-0.0472

Sequence	PBM E-score
ACGAACCG	-0.107
AGTGCTGA	-0.0757
ACGGCGGC	-0.00051
ATTAAAGG	0.112
AGCTCTTG	-0.183
ATTTCCAC	0.177
CGGGTACC	0.137
ATCCGTCC	-0.0828
GAAACTTC	0.0757
CACCCTTA	-0.118
ACGTCAAA	-0.0464
GTATGATA	-0.119
GCCAGGCA	-0.0277
GACGTACC	-0.17
ACGCTAGG	-0.177
CTTTCGTA	0.00784
AACAACGC	0.0407
CGGTCCAG	-0.0408
ATATATGA	0.0263
AGCCTAAT	0.00711
AATATTAA	0.258
AACTAGTC	0.0429
ATACTGGG	0.173
AACGATCG	-0.227
ACCCAAGT	-0.0246

Sequence	PBM E-score
AGGAGGAA	0.181
AACCACCT	0.124
CGCTGGTA	0.0497
ACGCCATG	-0.0676
AAGCTTGG	-0.134
ATATCCAT	-0.00061
AATTGGTC	0.0638
AGATCTAT	-0.0414
CACGTCAA	-0.156
CAGGAACC	0.32
CTCTTCCC	-0.26
AGCGTGAC	-0.215
AGATCCAT	-0.23
CAGAGCGC	-0.0969
AAAATCGT	0.0793
GGAGAACC	0.00608
AGGCGCGG	-0.14
TAAACTTA	-0.00782
CTGTTTCA	0.0249
ATGGGAGA	-0.18
GTGCCAAC	-0.0662
GCGAAGCC	0.1
